Measured values: the supplement of paper PMC3334620
Whole data set: some 33,000 sequences, median “E-score (-0.5 to 0.5)” near -0.056, cut for the highest 2% near 0.38. This is one part of the list.

These sequences were tested against Stb4 (UniProt P50104) (assay: PBM E-score (8-mer binding enrichment) (E-score (-0.5 to 0.5)); higher = stronger / more preferred TF binding; most listed sequences are background and not binding sites). Settings: protein concentration: 200 nM; construct: GST-DNA-binding domain.
Outline: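 Universal all-10-mer Agilent arrays, double-stranded by primer extension on fresh or once-stripped slides, were probed with about 100-200 nM GST-tagged yeast transcription factors made by PURExpress. Fluorescent anti-GST detected bound protein, and masliner normalised the scans. E-scores from the Universal PBM Analysis Suite were given to each ungapped eight-base word pooled with its reverse complement.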

Sequence	PBM E-score
ACGTGTCA	-0.139
GAGGGTAA	-0.0695
ACCTCGGG	0.421
ACTCAATG	-0.102
ACGATTCT	-0.05
GTTTTATA	0.0809
ACAAAACC	0.0673
GACAGATC	0.0617
CATTTATC	-0.131
AACTCCCT	-0.145
GACGACCC	-0.126
GCATCTAC	-0.0708
CTGCTCTC	-0.164
CGCCGTAC	0.0698
ACTCCGAG	0.395
TGAACTAA	-0.18
AATGTACC	0.102
CCTACTCA	-0.131
CGTTTCCC	0.0767
CTCGAGAG	-0.201
GGATAACC	0.151
AAGTTATC	-0.0752
ACAGTGAA	-0.178
GACCTGAC	-0.169

Sequence	PBM E-score
AGAGGGCG	-0.0668
GTAGGAGA	-0.148
CCCAGTAG	-0.161
GGCATAAA	0.0687
AAAGACAG	-0.209
GAGGCCCA	-0.0476
AGCCCCTA	-0.139
AAGCGGAG	-0.0556
CTCCGTAA	0.0582
CGCACAGA	-0.153
CGCGACAG	-0.103
CCCATCTC	-0.00926
CCCCCAAA	-0.339
CCTCTGAG	-0.116
TACCGCAA	0.101
ACACGTTG	-0.211
ACATCCCC	0.101
AGAAACGA	0.00044
ATGCCCCG	0.173
GAGATCGC	-0.143
ACGGTGAG	-0.139
CCATGGTA	-0.17
CATCCTGA	0.0103
TCTAATCA	0.0455

Sequence	PBM E-score
CATGCTTA	-0.188
AAGCGTCT	-0.0559
CTACGTAG	-0.0751
GGATTTTA	0.105
AAATCCTG	-0.159
CACCGTAC	-0.116
CCTAAAGA	-0.259
ACGAACAC	0.0555
AGTGGCTA	-0.11
GAGATTCA	-0.045
TGGAAACA	-0.0929
GTAATCGA	-0.0379
TATTATCA	-0.0339
CAATGACG	-0.131
AGGCCTTA	-0.225
ATGTAAGC	0.00776
AAGATCTT	-0.0117
CTCTGCAG	-0.225
CGGCGTCA	0.0505
CTTTTTAA	-0.226
CAGGACTA	-0.123
CGATTTCA	-0.0895
CAACTATG	-0.133
CCCTTGAC	-0.0794

Sequence	PBM E-score
CTCGTTTA	-0.0597
CGTTTCCA	0.0158
CGGAACTC	0.401
CCAGCCGA	0.322
ACTATCAA	0.0239
ACAAGCGG	0.0654
ATCATGAC	-0.181
ATGAGAAC	-0.00558
ACCGTAAT	-0.00014
GATGTCAC	-0.0155
AATAGACC	0.138
GCAATGGC	-0.0123
TCAAGGCA	-0.294
CCTCGGAG	0.408
AGCCAGAA	-0.133
AACTGAAG	-0.192
AGACAGTC	-0.0616
CAATATTC	0.106
CTCATTTA	0.0328
ATGCGGGG	0.0133
CCAGGAAC	-0.0439
AGGTCCAA	-0.103
